Test results reported in paper PMC4336329 (PLoS ONE, 2015).
About 2,200 (0.71%) of roughly 310,000 compounds showed an effect of 50% or more. The effect is printed as a negative number. This is one part of the list.

Biological target: human ether-à-go-go-related gene (hERG) potassium channel (human, UniProt Q12809)
Experiment: primary screen, population patch clamp on CHO cells stably expressing hERG

Chain of human ether-à-go-go-related gene (hERG) potassium channel (Q12809 whole entry, looked up): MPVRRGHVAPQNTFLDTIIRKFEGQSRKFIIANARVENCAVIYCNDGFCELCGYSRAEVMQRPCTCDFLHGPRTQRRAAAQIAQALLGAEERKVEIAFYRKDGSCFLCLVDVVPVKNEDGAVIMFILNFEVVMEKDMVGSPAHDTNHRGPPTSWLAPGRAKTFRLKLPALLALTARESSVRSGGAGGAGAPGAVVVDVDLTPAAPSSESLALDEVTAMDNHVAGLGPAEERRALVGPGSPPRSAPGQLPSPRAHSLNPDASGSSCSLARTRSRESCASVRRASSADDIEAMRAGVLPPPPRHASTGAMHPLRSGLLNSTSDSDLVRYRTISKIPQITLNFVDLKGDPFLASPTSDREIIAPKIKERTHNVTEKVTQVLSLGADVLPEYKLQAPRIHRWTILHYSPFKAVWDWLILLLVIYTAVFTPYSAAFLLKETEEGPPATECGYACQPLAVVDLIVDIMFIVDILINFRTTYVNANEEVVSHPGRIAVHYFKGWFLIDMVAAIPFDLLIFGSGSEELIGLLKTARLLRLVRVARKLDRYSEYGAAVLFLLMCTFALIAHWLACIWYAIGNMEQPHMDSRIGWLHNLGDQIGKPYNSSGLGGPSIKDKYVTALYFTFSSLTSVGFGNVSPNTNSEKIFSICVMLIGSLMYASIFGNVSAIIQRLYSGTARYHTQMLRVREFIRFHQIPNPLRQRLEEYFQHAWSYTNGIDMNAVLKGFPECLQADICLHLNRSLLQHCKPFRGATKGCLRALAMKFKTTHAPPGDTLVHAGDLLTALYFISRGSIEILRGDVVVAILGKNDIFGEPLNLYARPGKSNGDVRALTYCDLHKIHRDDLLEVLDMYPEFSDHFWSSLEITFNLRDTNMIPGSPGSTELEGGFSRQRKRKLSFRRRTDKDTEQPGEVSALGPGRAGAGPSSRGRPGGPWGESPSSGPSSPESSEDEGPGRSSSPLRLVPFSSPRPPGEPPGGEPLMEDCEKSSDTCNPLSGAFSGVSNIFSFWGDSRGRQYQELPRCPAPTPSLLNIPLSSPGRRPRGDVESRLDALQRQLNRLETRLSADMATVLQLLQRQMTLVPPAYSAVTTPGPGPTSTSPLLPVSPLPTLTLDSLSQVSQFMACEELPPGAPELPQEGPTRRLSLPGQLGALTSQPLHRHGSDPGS

SMILES | hERG current change (%, negative = inhibition) at 1uM [%]
Nc1n[nH]c(-c2ccccc2)n1 | 2.25
COc1ccc(CN2CCNC(=O)C2CC(=O)NCc2cc(C)n(C)n2)c(F)c1 (stereo not shown) | -7.54
COc1ccc(N(C)C2=NS(=O)(=O)c3ccccc32)cc1 | 14.5
CC(C)(CO)CNC(=O)CC1C(=O)NCCN1CC(c1ccccc1)c1ccccc1 (stereo not shown) | -1.82
Cc1cc(Cl)c(S(=O)(=O)N2CCN(c3ccccn3)CC2)cc1OCC(N)=O | 10.7
O=C(CCN1C(=O)C2C3C=CC(C3)C2C1=O)NC1CCCCC1 (stereo not shown) | 13.8
Cc1ccc2nc3n(c(=O)c2c1)-c1cc(Cl)ccc1C(=O)NC3Cc1ccccc1 (stereo not shown) | 14.7
CCc1cccc(CC)c1NC(=O)C(NS(=O)(=O)c1cccs1)c1ccccc1 (stereo not shown) | 5.54
CCN1CCN(C(=O)CN2C(=O)c3ccccc3S2(=O)=O)CC1.Cl | 7.47
COc1ccc(CNC(=O)c2cc(C)nc3ccccc23)cc1OC | 8.4
Cc1ccccc1NC(=S)N(CCN(C)C)C(C)c1cccnc1 (stereo not shown) | -2.56
O=C(CN1C(=O)/C(=C/c2ccc(C(F)(F)F)cc2)Sc2ccccc21)NCCCN1CCOCC1 | 7.25
O=C(O)CCCCCCCCCC[n+]1ccccc1.[Br-] | 15.6
CCCCCCN1C=CC(=C2C(=O)c3ccccc3C2=O)C=C1 | 14.4
Cc1nn(C)cc1CNC(=O)C1CCC(=O)N(CC2CCCCC2)C1 (stereo not shown) | -5.08
O=C1Nc2ccc(Br)cc2/C1=C/c1ccc(C(=O)O)cc1 | 16.2
O=C(NC1CCC(O)CC1)c1cc(-c2ccco2)nc2ccccc12 (stereo not shown) | 14.6
COc1ccc(C(O)Cc2nccn2C)cc1 (stereo not shown) | 3.22
CCc1nc(SCC(=O)NCCc2ccc(OC)c(OC)c2)c2c(=O)n(C)c(=O)n(C)c2n1 | 5.67
COC(=O)CC(NC(=O)c1ccc(C)cc1)c1ccc2c(c1)OCO2 (stereo not shown) | 11.1
Cc1ccc([N+](=O)[O-])cc1S(=O)(=O)N1CCNCC1 | 19.2
CC(=O)N1CCN(c2ccc(NC(=O)c3ccc4ccccc4c3)cc2)CC1 | 5.08
CN(C(=O)c1ccccc1C(=O)c1ccccc1)C1CCS(=O)(=O)C1 (stereo not shown) | 14.7

SMILES | hERG current change (%, negative = inhibition) at 1uM [%]
Cc1ccc(S(=O)(=O)N2CCN(C(=O)CN3CCCC3)C2)cc1 | -2.92
CC(C)(C)c1ccc(C(=O)NNC(=O)CCC(=O)Nc2ccccc2)cc1 | 7.03
CCN(CC)CCNS(=O)(=O)c1ccc(/C=C/C(=O)O)cc1 | 17
CCOC(=O)Nc1cc(Br)c2c(c1)OCCO2 | -0.476
Fc1ccc(Nc2ncnc3sccc23)cc1 | 5.5
CCOc1ccc(-c2cc(C(=O)OC)[nH]n2)cc1 | 7.72
O=C(Nc1nc(-c2cc(F)ccc2F)cs1)c1cccc(N2C(=O)CCC2=O)c1 | 3.1
CCC(C)NC(=O)c1ccccc1NC(=O)C(C)N(c1ccccc1)S(C)(=O)=O (stereo not shown) | 2.47
CCOC(=O)C1(Cc2ccc(Cl)cc2)CCN(C(=O)c2sc(C)nc2C)CC1 | -2.23
CCOc1ncnc2c1oc1nc(CC(C)C)c3c(c12)CC(C)(C)OC3 | 7.81
CCSc1nsc(NC(=O)Nc2cccc(C(C)=O)c2)n1 | 8.15
CCOC(=O)CC1(NC(=O)c2cc(COc3cncc(Cl)c3)on2)CCCCC1 | 10.1
O=C(C(=O)N1CCN(c2cccc(Cl)c2)CC1)c1c[nH]c2ccccc12 | -2.47
Cc1cc(N)ccc1N1CCCC1.Cl | 4.08
O=C(Cc1ccccc1)Nc1ncccn1 | 4.93
COc1cc(OC)cc(C(=O)Oc2c(CN3CCOCC3)cc(Cl)c3cccnc23)c1 | 13.3
Cc1nc2sccn2c(=O)c1S(=O)(=O)NCC(C)c1ccccc1 (stereo not shown) | 6.31
COc1ccc(C(OC(=O)c2ccco2)C(=O)NCc2ccco2)cc1 (stereo not shown) | 13
O=C(NC(=O)N1CCOCC1)c1ccccc1 | 10.1
COc1cccc(C2=NN(C(=O)c3ccc(C)o3)C(O)(C(F)(F)F)C2)c1 (stereo not shown) | 11.5
Cc1cc(-c2ccc(Cl)cc2)n2nc(C)cc2n1 | 16.8
COc1cc(C(=O)Nc2ccc(C)cc2C(NCC(=O)NN)c2ccccc2)cc(OC)c1OC (stereo not shown) | 15.3
CCCc1nnc(NC(=O)CCC(=O)NCc2ccc(Cl)cc2Cl)s1 | 19.3

SMILES | hERG current change (%, negative = inhibition) at 1uM [%]
CC(NC(=O)c1ccccc1[N+](=O)[O-])C1CC2CCC1C2 (stereo not shown) | 18.5
CCOc1cc(-c2n[nH]c(=S)n2Cc2ccccc2)ccc1OC(F)F | 14.1
CN(Cc1ccc(F)cc1)C(=O)CCc1nnc(-c2ccccc2)o1 | 2.97
CCCc1cc(C(=O)N2CCCC(N3CCN(c4ccccc4C)CC3)C2)n(C)n1 (stereo not shown) | 3.48
CCSc1nnc(NC(=O)c2cc(OC)c(OC)c(OC)c2)s1 | 4.55
Cc1nn(-c2ccc(C(=O)O)cc2)c(=O)c2ccccc12 | 11
COc1cc(CN(C2CCCCC2C)S(=O)(=O)c2ccc(S(=O)(=O)NC3CC3)cc2)cc(OC)c1OC (stereo not shown) | -2.27
Cc1cc(=O)[nH]c(N/N=C/c2ccc(-c3ccc([N+](=O)[O-])cc3)o2)n1 | 13.5
O=c1[nH]c(SCc2ccccc2)nc2ccsc12 | 6.51
Cc1cc(C)cc(NC(=S)NCC2CCCO2)c1 (stereo not shown) | 7.64
O=C(NNS(=O)(=O)c1ccccc1)c1ccccc1-n1cccc1 | 6.46
CCN(/N=C/c1cccs1)c1cc(=O)n(C)c(=O)[nH]1 | 9.48
Cc1ccc(-n2c(C)cc(C(=O)CN3CCOCC3)c2C)cc1 | 4.07
CN(C)/C=C1\SC(=S)N(N2C(=O)C3C4C=CC(C4)C3C2=O)C1=O (stereo not shown) | 4.34
CCOc1cc(N2CCOCC2)c(OCC)cc1NC(=O)COC(=O)CCOc1ccc(C(C)(C)C)cc1 | 10.5
OCC[C@H]1C[C@@H](O)[C@H](O)[C@]2(Cc3ccccc3CCO2)O1 | 5.45
CN(c1ccc(OCC(=O)OCC(=O)Nc2ccccc2)cc1)S(=O)(=O)c1cccs1 | 4.04
Cc1ccc(S(=O)(=O)NC2=NCCCCC2)cc1 | 10
COc1ccc2c(c1)[nH]c1c(=O)n(Cc3ccncc3)cnc12 | -9.33
O=C(CCn1cnnn1)Nc1ccccc1F | 5.19
Cc1nonc1OCCN1CCN(c2ccccc2[N+](=O)[O-])CC1.Cl | -2.31
CCOc1ccccc1NC(=O)C(OC(=O)c1ccc(O)cc1)c1ccccc1 (stereo not shown) | -1.45
O=C(COc1ccccc1)Nc1ccc(OC(F)(F)C(F)F)c(NC(=O)COc2ccccc2)c1 | 5.54

SMILES | hERG current change (%, negative = inhibition) at 1uM [%]
CN1CCN(c2ccc([N+](=O)[O-])cc2NC(=O)c2ccccc2Cl)CC1 | -75.6
O=C(NCC(=O)N(c1ccc(Cl)cc1)C(C(=O)NC1CCCC1)c1ccncc1)c1ccco1 (stereo not shown) | 5.8
COc1ccccc1NC(=S)N1CCN(c2ccc(F)cc2)CC1 | 8.76
C/C(=N\NC(=O)c1cccc(Br)c1)c1cccc(NC(=O)c2ccc(C)o2)c1 | 2.01
COc1ccc(-c2[nH]ncc2CN(Cc2nccn2C)C(C)C)c(F)c1 | -6.67
Cc1cc([N+](=O)[O-])ccc1NC(=O)CCC(=O)N1CCCCC1 | -3.85
CC(C)(C)n1nc2c(c1NC(=O)c1cc([N+](=O)[O-])ccc1Cl)CS(=O)(=O)C2 | 14.4
C/C=C/COc1nc2c(c(=O)n(C)c(=O)n2C)n1C | 13.8
CCOc1ccc(C(c2c(C)n(C)n(-c3ccccc3)c2=O)c2c(C)n(C)n(-c3ccccc3)c2=O)c(O)c1 | 20.3
Cl.OCCN1CCN(CCOc2cccc(Cl)c2)CC1 | 1.81
CCOc1ccc(C(=O)N2CCCCCC2)cc1 | 9.17
O=C(c1ccc(COc2ccc(Cl)cc2)o1)N1CCN(Cc2ccc3c(c2)OCO3)CC1 | 7.98
O=C(O)c1ccccc1CSc1nc2ccccc2[nH]1 | 13.2
COc1ccc(CNC(=O)COC(=O)CCOc2ccccc2)cc1 | 11.2
O=c1c2ccccc2nc(-c2ccc([N+](=O)[O-])cc2)n1O | 9.22
CCCc1cc(C(=O)NCc2ccccc2)no1 | 6.07
COc1ccc(-c2[nH]c(-c3ccccc3)nc2SCC(=O)Nc2nccs2)cc1 | -0.692
O=C(/C=C/c1cccc(Cl)c1)NCCCN1CCOCC1 | 22.7
Cc1cccc(-n2c(-c3csc4ccccc34)n[nH]c2=S)c1 | 1.64
COc1ccc(C)cc1S(=O)(=O)NC1CCCC1 | 9.56
COc1ccc(C(C)NC(=O)C2CCCC2)cc1 (stereo not shown) | 11.5
CN(C)/C=N/c1nc2nccc(-c3ccc(F)cc3)n2n1 | 13.1
